Screen size: about 420,000 compounds; about 50,000 (12%) were called active. Inconclusive means that the source gave no clear call. Such entries were picked first, then a sample of the others. Calls come from the whole dose curve; as a rule, active = well fitted inhibition curve with a large enough effect; inconclusive = small, poorly fitted or top-dose-only effect; inactive = flat fitted curve, though single readings scatter. No potency is given beside an inconclusive call; the fits are too rough.
Assay: qHTS for Inhibitors of human tyrosyl-DNA phosphodiesterase 1 (TDP1): qHTS in cells in presence of CPT; note: nearly all actives have a fitted effect of over 55% in size
Settings: chicken DT40 Tdp1-/-;hTDP1 cells + 20 nM CPT, ATP luminescence, 48 h; activity change, negative = growth inhibition: at 46.2 µM (top of the series) unless noted
Procedure, shortened: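 Chicken DT40 Tdp1-/- cells stably complemented with human TDP1 were seeded at 400 cells/well in medium containing 20 nM camptothecin, exposed to pin-transferred compounds, and grown at 37 °C for at least 48 hr. Viability was read as ATP luminescence.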
% is set by controls: 0 for no effect and ±100 for the full control effect; potency is the fitted concentration of half-maximal effect; tags give direction and shape of the fitted curve.

Compound | Potency | activity change, negative = growth inhibition
CCCCn1c(C(C)NC(=O)CCC)nc2ccccc21 (configuration not stated) | inconclusive [inhibitor, single point] | –
COC(=O)C[C@@H]1CC[C@@H](NS(=O)(=O)c2ccccc2OC)[C@@H](CO)O1 | – | inactive: -10.3%
COc1ccc(S(=O)(=O)Nc2cccc(-c3ccc(N4CCCC4)nn3)c2)c(OC)c1 | inconclusive [inhibitor, partial curve] | –
COc1cc(CN2CCC(C(=O)N3CCN(c4ccccc4F)CC3)CC2)ccc1O | inconclusive [inhibitor, single point] | –
NC(=O)C1CCN(C(=O)c2ccc(NC(=O)c3nsc4ccccc34)cc2)CC1 | inconclusive [inhibitor, single point] | –
COc1cccc(NC(=O)C2(C)CCN2CC2CCCCC2)c1 (configuration not stated) | – | inactive: 0.294%
CCC(C)c1ccc(S(=O)(=O)Nc2cccnc2)cc1 (configuration not stated) | inconclusive [inhibitor, partial curve] | –
CCOc1ccccc1NC(=O)C(OC(=O)c1ccccc1O)c1ccccc1 (configuration not stated) | inconclusive [inhibitor, single point] | –
CC(=O)N1c2ccc(S(=O)(=O)N3CCC(C(=O)NCc4ccc(C)cc4)CC3)cc2CC1C (configuration not stated) | inconclusive [inhibitor, partial curve] | –
O=C(Nc1ccc(CSc2ccccc2)cc1)c1ccc(CN2CCOCC2)cc1 | inconclusive [inhibitor, single point] | –
CCOc1ccccc1N(CC)C(=O)Cn1ncc2c([nH]c3ccccc32)c1=O | inconclusive [inhibitor, single point] | –
Cn1c(-c2cc3c(C(F)(F)F)nn(C)c3s2)n[nH]c1=S | – | inactive: -6.85%
Cc1ccc(C)c(COC(=O)CCN=C2NS(=O)(=O)c3ccccc32)c1 | – | inactive: -17.8%
CC1=NN(c2ccccc2)C(=O)C1C(=S)SC1CC(=O)NC1=O (configuration not stated) | inconclusive [inhibitor, single point] | –
C#CCNC(=O)C1=C[C@@H](c2ccc(C#C)cc2)C[C@@H](OCc2ccc(CO)cc2)O1 | inconclusive [inhibitor, single point] | –
COC(=O)c1sc2cnccc2c1N | inconclusive [inhibitor, partial curve] | –
COc1cccc(CNC(=O)c2ccc3c(c2)c(C)c(C)n3Cc2ccccc2)c1 | active: 16.4 µM | –
Clc1cccc(-c2ccc(CNCCSc3nnnn3-c3ccccc3)o2)c1 | inconclusive [inhibitor, single point] | –
CCOc1ccc(NC(=O)c2cnc3scc(C)n3c2=O)cc1 | inconclusive [inhibitor, single point] | –
CCCCOC(=O)Nc1nnc(CCc2ccccc2)s1 | inconclusive [inhibitor, single point] | –
Nc1ncnc2c1ncn2[C@@H]1O[C@H](C(=O)N2CCC[C@@H]2C(=O)OCc2ccccc2)[C@@H](O)[C@H]1O | inconclusive [inhibitor, single point] | –
Cc1ccc(NC(=O)CCSc2nnnn2-c2ccc3c(c2)OCO3)cc1C | inconclusive [inhibitor, single point] | –
COc1cccc(Cn2cnc(-c3ccccc3OC)c2C2CC2)c1 | inconclusive [inhibitor, single point] | –

Compound | Potency | activity change, negative = growth inhibition
CCN(CC(=O)Nc1cc(S(=O)(=O)N2CCCCC2)ccc1Cl)Cc1ccccc1 | active: 16.4 µM | –
COc1ccc2ccc(=O)oc2c1 | inconclusive [inhibitor, single point] | –
Cn1cc(C(=O)N2CCCC(Nc3ccc(F)cc3)C2)c2ccccc21 (configuration not stated) | inconclusive [inhibitor, single point] | –
NC(=S)N1OC[C@@H]2COc3ccc4ccccc4c3[C@@H]21 | active: 18.4 µM | –
CC(=O)c1ccc(NC(=O)c2nc3ccccc3nc2N2CCCCC2)cc1 | inconclusive [inhibitor, single point] | –
OC[C@H]1O[C@@H]2O[C@H]3[C@H](O)[C@@H](O)[C@@H](O[C@H]4[C@H](O)[C@@H](O)[C@@H](O[C@H]5[C@H](O)[C@@H](O)[C@@H](O[C@H]6[C@H](O)[C@@H](O)[C@@H](O[C@H]7[C@H](O)[C@@H](O)[C@@H](O[C@H]1[C@H](O)[C@H]2O)O[C@@H]7CO)O[C@@H]6CO)O[C@@H]5CO)O[C@@H]4CO)O[C@@H]3CO | inactive | –
O=C(NCc1ccc(OC(F)(F)F)cc1)C1CCC(=O)N(C2CC2)C1 (configuration not stated) | inconclusive [inhibitor, single point] | –
Cc1c(C(=O)NCc2ccc(F)cc2)sc(=O)n1Cc1ccc(C(=O)c2ccccc2)cc1 | inconclusive [inhibitor, single point] | –
COc1cc(NC(=O)c2sc3ncn(CC(=O)N4CCCC(C)C4)c(=O)c3c2C)cc(OC)c1OC (configuration not stated) | inconclusive [inhibitor, single point] | –
COc1cccc(CN(C)C(=O)c2cccc(S(=O)(=O)NCc3ccccc3)c2)c1OC | inconclusive [inhibitor, single point] | –
CCN(CC)S(=O)(=O)c1ccc(O)c(NC(=O)c2ccc(N3CCOCC3)c([N+](=O)[O-])c2)c1 | inconclusive [inhibitor, single point] | –
O=C1c2ccccc2S(=O)(=O)N1CC(O)Cn1ccc2ccccc21 (configuration not stated) | inconclusive [inhibitor, partial curve] | –
COc1ccc2oc(=O)c(C(=O)N3CCN(C(=O)c4ccco4)CC3)cc2c1 | – | inactive: -11.7%
CCOc1ccc(CCNC(=O)c2cn(C)c3ccc(S(=O)(=O)N4CCCCC4)cc3c2=O)cc1OCC | inconclusive [inhibitor, single point] | –
Cc1ccc(C(=O)NNC(=O)c2ccco2)cc1 | – | inactive: -3.93%
CC(C)NC(=O)Cn1nnc(-c2ccccc2)c1COc1ccc2ccccc2c1 | active: 14.6 µM | –
COc1ccc(-c2n[nH]c3c2C(c2ccc(OC)c(OC)c2)N(c2ccccc2)C3=O)cc1 (configuration not stated) | inconclusive [inhibitor, single point] | –
O=C(NC12CC3CC(CC(C3)C1)C2)C1=COCCO1 | – | inactive: -2.58%
COc1ccc(Cn2c(CCC(=O)NCCC(C)C)nc3ncccc3c2=O)cc1 | – | inactive: -29.5%
Cc1cc(C)c(NC(=O)c2sc3nc(C)cc(C)c3c2NC(=O)c2ccccc2)c(C)c1 | inconclusive [inhibitor, partial curve, poor fit] | –
O=C(Nc1ccc2ccccc2c1)c1ccc(Cl)cc1 | – | inactive: -8.93%
CC1=C(c2ccc(C)c(C)c2)S(=O)(=O)NC1=NCc1ccccc1Cl | – | inactive: -16%
COc1ccccc1C(=O)Nc1cccc(C(=O)OCc2cc(=O)n3cc(C)sc3n2)c1 | – | inactive: -8.09%

Compound | Potency | activity change, negative = growth inhibition
CCOC(=O)c1cccc(COC(=O)c2cccc(-c3nnc(-c4ccccc4)o3)c2)c1 | active: 25.9 µM | –
COc1ccc(CNC(=O)C(=O)NCC2CCCN2S(=O)(=O)c2ccccc2)cc1 (configuration not stated) | inconclusive [inhibitor, single point] | –
COc1ccc(-c2csc(Cc3nnc(N4CCOCC4)n3-c3ccccc3)n2)cc1 | inconclusive [inhibitor, single point] | –
CCc1ccc(NCc2cc3c(C)nn(-c4ccccc4)c3[nH]c2=O)cc1 | active: 20.6 µM | –
CCCc1cc(-c2[nH]ncc2-c2ccc(C(=O)OCC)o2)c(O)cc1O | inconclusive [inhibitor, partial curve, poor fit] | –
O=C(c1ccccn1)N1N=C2/C(=C/c3ccc(F)cc3)CCCC2C1c1ccc(F)cc1 (configuration not stated) | inconclusive [inhibitor, single point] | –
CC(C)CNC(=O)c1coc(=O)c(Br)c1 | active: 0.411 µM | –
O=C(N[C@@H](Cc1ccccc1)C(=O)OCc1ccccc1)c1nc[nH]c1C(=O)N1CCc2ccccc2C1 | inconclusive [inhibitor, single point] | –
CCOC(=O)C(=CNc1ccc(C)cc1C)C(=O)OCC | inconclusive [inhibitor, single point] | –
Cc1ccc(S(=O)(=O)N2CCN(C(=O)COC(=O)c3oc4ccccc4c3C)CC2)cc1 | – | inactive: -23.9%
CCOc1ccc(NC(=O)CCCn2nc(C)c3c(C)n(-c4ccccc4)nc3c2=O)cc1 | – | inactive: -5.65%
COc1cccc(-n2c(=O)[nH]cc(C(=O)Nc3ccc4c(c3)OCCO4)c2=O)c1 | active: 4.11 µM | –
O=C(CNC(=O)c1ccc(F)cc1)OCc1cc(=O)n2nc(C3CC3)sc2n1 | – | inactive: -14.6%
COC(=O)[C@@]1(Cc2ccc(F)cc2)[C@H]2c3cc(C(=O)N4CCCC4)n(Cc4cc(C)n(C)n4)c3C[C@H]2CN1C(=O)c1ccccc1 | active: 20.6 µM | –
Cc1cc(F)ccc1NCc1ccc([N+](=O)[O-])cc1 | – | inactive: 7.01%
CC(C)Oc1cccc(-c2cc(C(=O)NC(=S)N(C)c3ccccc3C(=O)O)c3ccccc3n2)c1 | – | inactive: -27.7%
COc1ccc(S(=O)(=O)N2CCOC2CNC(=O)C(=O)NCCc2ccc(S(N)(=O)=O)cc2)cc1 (configuration not stated) | inconclusive [inhibitor, single point] | –
COc1ccc(/C=N/NC(=O)CNC(=O)C2COc3ccccc3O2)cc1OC (configuration not stated) | – | inactive: -5.71%
COc1ccc(-c2c(C)nn(Cc3ccccc3)c2N)cc1 | – | inactive: -15.5%
CC1Cc2c([nH]c3ccccc23)C2c3ccccc3CN12 (configuration not stated) | inconclusive [inhibitor, single point] | –
COc1cc(NS(=O)(=O)c2ccc(NC(=O)C34CC5CC(CC(C5)C3)C4)cc2)ncn1 | inconclusive [inhibitor, single point] | –

— PubChem BioAssay AID686979 (National Center for Advancing Translational Sciences (NCATS), 2013)
